Test results: paper PMC4336329 (PLoS ONE, 2015)
The campaign covered roughly 310,000 compounds. About 2,200 (0.71%) showed an effect of 50% or more. Effects have a minus sign here. Some of the results follow.

Molecular target: human ether-à-go-go-related gene (hERG) potassium channel (human, UniProt Q12809)
Assay: primary screen, population patch clamp on CHO cells stably expressing hERG

Sequence of human ether-à-go-go-related gene (hERG) potassium channel (Q12809 whole entry, looked up): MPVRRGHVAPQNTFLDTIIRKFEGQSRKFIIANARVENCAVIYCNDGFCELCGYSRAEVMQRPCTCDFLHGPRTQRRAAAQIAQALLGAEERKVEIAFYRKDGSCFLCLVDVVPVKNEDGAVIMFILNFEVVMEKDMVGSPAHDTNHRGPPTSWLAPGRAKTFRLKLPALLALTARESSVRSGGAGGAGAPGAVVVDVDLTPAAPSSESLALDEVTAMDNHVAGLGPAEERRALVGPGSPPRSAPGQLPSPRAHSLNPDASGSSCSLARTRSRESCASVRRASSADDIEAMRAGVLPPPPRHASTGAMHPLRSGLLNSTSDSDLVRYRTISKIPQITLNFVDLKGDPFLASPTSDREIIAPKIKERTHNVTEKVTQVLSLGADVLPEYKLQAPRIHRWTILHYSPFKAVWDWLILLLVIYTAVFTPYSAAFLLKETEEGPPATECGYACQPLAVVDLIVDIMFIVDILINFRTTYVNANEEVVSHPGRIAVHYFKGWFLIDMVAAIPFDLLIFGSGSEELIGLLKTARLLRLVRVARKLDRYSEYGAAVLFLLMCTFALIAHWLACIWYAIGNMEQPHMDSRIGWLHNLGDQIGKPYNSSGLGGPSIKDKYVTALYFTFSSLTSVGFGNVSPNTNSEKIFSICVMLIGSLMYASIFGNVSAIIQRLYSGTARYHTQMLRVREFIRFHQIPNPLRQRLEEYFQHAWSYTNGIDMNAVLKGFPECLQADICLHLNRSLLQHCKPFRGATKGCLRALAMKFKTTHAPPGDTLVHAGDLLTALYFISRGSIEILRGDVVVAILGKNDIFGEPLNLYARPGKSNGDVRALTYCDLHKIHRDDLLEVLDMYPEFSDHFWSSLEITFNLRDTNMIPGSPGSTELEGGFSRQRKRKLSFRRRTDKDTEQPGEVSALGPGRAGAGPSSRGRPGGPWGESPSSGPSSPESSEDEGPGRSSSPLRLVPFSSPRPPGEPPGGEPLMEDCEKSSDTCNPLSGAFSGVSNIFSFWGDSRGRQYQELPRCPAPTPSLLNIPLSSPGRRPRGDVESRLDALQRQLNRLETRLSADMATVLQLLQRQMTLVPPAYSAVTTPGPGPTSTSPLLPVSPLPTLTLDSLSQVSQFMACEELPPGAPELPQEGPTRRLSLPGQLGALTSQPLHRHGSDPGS

Structure (SMILES)	hERG current change (%, negative = inhibition) at 1uM
CCOC(=O)c1[nH]c(=O)[nH]c1CSCCO	11.4%
Cc1ccc(C)c(-c2csc(N)c2C(=O)OC(C)C)c1	11.1%
CCC(C(=O)Nc1ccc2c(c1)OCCO2)c1ccccc1 (stereo not drawn)	18.8%
COc1cc(CC(=O)OCC(=O)Nc2ncc(Cl)cc2Cl)cc(OC)c1OC	11%
COc1ccc(NC(=O)C23CCC(C2)C(C)(C)C3=O)cc1 (stereo not drawn)	9.76%
Cc1ccc[n+](-c2nc([O-])sc2/C=N/Nc2ccc([N+](=O)[O-])cc2)c1	10.7%
COc1ccc(-n2nc3c(c2NC(C)=O)CS(=O)(=O)C3)cc1	20.9%
COc1cccc(/C=C2\SC(=S)N(CCCC(=O)NC3=NCCS3)C2=O)c1	12.6%
CCc1ccccc1NC(=O)CN1CCN(CC(=O)Nc2cc(C)ccc2OC)CC1	14.3%
COc1cc(/C=C(\C#N)c2nc3ccccc3[nH]2)cc(OC)c1O	16%
CN1CCN(C(=S)C(=O)NCc2ccccc2)CC1	6.25%
CC(=O)c1cccc(CN2CCCC(N3CCN(c4ccccc4F)CC3)C2)c1 (stereo not drawn)	4.79%
O=C(O)c1cccc(NC(=S)NC(=O)c2cccc(OCc3ccccc3)c2)c1	22.6%
CN(c1ncc(C(F)(F)F)cc1Cl)n1cc(C(=O)O)c2ccccc2c1=O	13.5%
CC(=O)Nc1ccc(NC(=O)C(C)OC(=O)CCCN=C2NS(=O)(=O)c3ccccc32)cc1 (stereo not drawn)	8.26%
COc1ccc(N(CN2C(=O)C3CC=CCC3C2=O)C(=O)c2ccco2)cc1 (stereo not drawn)	6.46%
CCOC(=O)CSC1=N/C(=C\c2ccc(OC)c(OC)c2)C(=O)N1C	-48.2%
COc1cccc(/C=C2\SC(=S)N(NS(=O)(=O)c3ccccc3)C2=O)c1OC	-0.0447%
Cc1cc(NC(=O)CCC(=O)N(CC(C)C)C(C(=O)NC(C)(C)C)c2ccccc2Cl)no1 (stereo not drawn)	13.4%
O=C(NCCCN1CCOCC1)C(=O)NCC1OCCN1S(=O)(=O)c1ccc(Br)cc1 (stereo not drawn)	8.44%
CCOC(=O)C1CCN(C(=O)C(=O)c2cn(CC(=O)N3CCCCCC3)c3ccccc23)CC1	9.27%
CN(C)/C=C\C(=C/C(=O)C(F)(F)F)Nc1ccccc1Oc1ccccc1	0.691%
COc1ccccc1CCC(=O)NNC(=O)c1ccncc1	16.6%

Structure (SMILES)	hERG current change (%, negative = inhibition) at 1uM
CC(C)N1C(=O)CC(Nc2ccc(N3CCOCC3)cc2)C1=O (stereo not drawn)	-0.972%
O=C(NCCCc1ccccc1)c1ccc([N+](=O)[O-])cc1Cl	-10.6%
COCCSc1ncnc2c1oc1nc3c(cc12)COC(C)(C)C3	9.02%
CC(C)(C)OC(=O)N1CCN(C(=O)Nc2ccc3c(c2)OCCO3)CC1	8.68%
COc1cccc(NC(=O)Cn2c(-c3cncs3)nc3ccccc32)c1	0.466%
CC(C)(CO)CNC(=O)CCc1nnc(CCCc2ccccc2)o1	6.17%
CSC1=NCCN1S(=O)(=O)c1ccccc1	3.71%
O=S(=O)(Oc1ccccc1N1CCCCC1)c1ccccc1	6.19%
CCCCn1c(N)c(N(CC)C(=O)c2cnc(C)cn2)c(=O)[nH]c1=O	9.4%
CC(O)Cc1cn(CC(=O)N2CCN(C(=O)OC(C)(C)C)CC2)nn1 (stereo not drawn)	17.6%
CC(=O)NC(c1ccccc1)c1c(O)ccc2ccccc12 (stereo not drawn)	7.34%
COc1ccc(-c2cc(C(F)(F)F)n3nc(C(=O)O)cc3n2)cc1OC	0.647%
O=C(CCC1CCCC1)N1CCN(C(=O)COc2ccccc2)CC1	-8.68%
COc1ccc(NC2CCCN(C(=O)CSc3ccccn3)C2)cc1OC (stereo not drawn)	10.3%
COC(=O)c1ccccc1NC(=S)NC(=O)CC(C)C	3.33%
CCOCC(=O)Nc1cc(C(=O)Nc2ccc(F)cc2)ccc1Cl	29.4%
O=C(Nc1cccs1)Nc1ccccc1Cl	6.1%
Cn1c(N)c(C(=O)CSc2nc(N)cc(=O)[nH]2)c(=O)n(C)c1=O	8.36%
CCN1C(=O)c2ccc(-c3nc4ccccc4c(=O)o3)cc2C1=O	5.78%
NC(=O)C1Cc2ccccc2CN1S(=O)(=O)c1ccc(Cl)s1 (stereo not drawn)	8.63%
O=C(Nc1ccccc1F)c1oc2ccccc2c1NC(=O)C1CC1	12.4%
C=CCn1c(=O)c2c(nc3n2CCCN3Cc2ccccc2)n(C)c1=O	8.28%
CC(=O)Nc1ccc2c(c1)N(C(C)=O)c1ccccc1CC2	17.6%

Structure (SMILES)	hERG current change (%, negative = inhibition) at 1uM
Cc1ccc(C)c(NC(=O)C2CC(=O)N(C(C)C)C2)c1 (stereo not drawn)	2.5%
CCOC(=O)C1=C(CSc2nc(CC)c(C)cc2C#N)OC(N)=C(C#N)C1c1ccc(OC)cc1 (stereo not drawn)	7.38%
O=C(NC1CCCCC1)c1ccc(N2CCCC2=O)cc1	14.9%
O=C(Nc1ccc(Br)cc1F)C1CCCO1 (stereo not drawn)	1.99%
CCCCP(=O)(O)c1ccccc1	4.72%
c1ccc2c(c1)OCCOCCOCCOCCOc1ccccc1OCCOCCOCCO2	-11.5%
CC1=C(C(=O)OC2CCCCC2)C(c2ccccc2Br)NC(=O)N1 (stereo not drawn)	17.6%
CCCc1cc(C(=O)N2CCC(n3nccc3NC(=O)c3ccc(OC)cc3)CC2)no1	-3.61%
COc1cc(C)c(Cl)cc1S(=O)(=O)n1cnc(C)c1	6.71%
NS(=O)(=O)c1ccc(N=Cc2c(O)c3ccccc3oc2=O)cc1	5.55%
Cn1nnnc1SCc1cccc2ccccc12	21.5%
COc1cc(/C=C/c2ccc3cccc(OC)c3n2)c(O)c([N+](=O)[O-])c1	9.37%
Cc1[nH]c2ccccc2c1SCCN	7.37%
CN(c1ccc(Br)cc1)S(=O)(=O)c1ccc2[nH]cc(C(=O)NCCN3CCOCC3)c(=O)c2c1	-1.61%
CC(=O)N[C@@H](Cc1c[nH]c2ccccc12)C(=O)OCC(=O)NCc1ccc2c(c1)OCO2	5.97%
COCCn1c(=NC(=O)c2cc3ccccc3oc2=O)sc2cc(S(N)(=O)=O)ccc21	2.57%
CC(C)N(CC(N)=O)c1ncnc2sc(-c3ccccc3)cc12	7.93%
Cc1ccc(S(=O)(=O)c2nc(N3CCOCC3)sc2Cl)cc1	2.61%
C=CCc1ccccc1OCC(O)CN1CCN(CCO)CC1.Cl (stereo not drawn)	17.1%
COc1ccc(CN(C)S(=O)(=O)c2nnc(NC(=O)c3cccc(F)c3)s2)cc1OC	6.86%
COc1ccc(F)cc1S(=O)(=O)N1CCN(C(=O)c2ccco2)CC1	14.6%
Cc1ccc(C(=O)CCNc2ccc(Cl)cc2)o1	-0.237%
CCOC(=O)COn1c(SCC(=O)OCC)nc2ccccc2c1=O	1.27%

Structure (SMILES)	hERG current change (%, negative = inhibition) at 1uM
Cc1nc2c(-c3ccccc3)cnn2c(N)c1-c1ccccc1	12.4%
CC1CC(=O)c2cnc(N3CCOCC3)nc2C1 (stereo not drawn)	2.53%
Cc1ccnc(NCc2ccccc2O)c1	14.1%
NN1C(=O)/C(=C\c2ccco2)SC1=S	6.71%
Cc1cc(C)c(S(=O)(=O)NCC2CCC(C(=O)NCc3ccccn3)CC2)c(C)c1 (stereo not drawn)	-1.46%
COc1ccccc1CNS(=O)(=O)c1ccc(Br)s1	8.44%
CCOc1ccc(NC(=O)CN(C)C(=O)C2CSC3(C)CCC(=O)N23)cc1OCC (stereo not drawn)	4.55%
c1ccc(CN2CCN(c3ncnc4nc[nH]c34)CC2)cc1	8.17%
NS(=O)(=O)c1cccc(NC(=O)CN2CCCc3ccccc32)c1	11.6%
O=C(/C=C/c1ccc(Cl)cc1)NC1CC2CCC1C2 (stereo not drawn)	-2.01%
CN1CCN(C(=O)c2ccc3c(c2)N(Cc2ccccc2F)C(=O)c2ccccc2S3=O)CC1 (stereo not drawn)	13.9%
O=C(COC(=O)c1ccc[n+]([O-])c1)Nc1c(Br)cc([N+](=O)[O-])cc1Br	11.5%
COC(=O)C1CCN(CC(=O)Nc2ccc(C(=O)Nc3ccccc3OC)cc2)CC1	5.28%
Cc1cc(C(=O)NCCN2C(=O)S/C(=C\c3cccs3)C2=O)ccc1[N+](=O)[O-]	2.93%
CCOc1ccc(NS(=O)(=O)c2ccc(C(=O)N3CCC3)cc2)cc1	8.42%
CN1CCCN(S(=O)(=O)c2cccc(C(F)(F)F)c2)c2nc3ccccc3nc21.Cl	7.05%
Cc1[nH]n(-c2ccc([N+](=O)[O-])cc2)c(=O)c1C=NCCN1CCN(C(=O)c2ccc(F)cc2)CC1	-81.7%
Cc1ccc(-n2nnnc2CNC(=O)C2CC(=O)N(c3ccc(F)cc3)C2)cc1C (stereo not drawn)	-9.57%
Brc1ccc(/C=N/Nc2ccccc2)cc1	12.6%
Cc1onc(-c2ccccc2Cl)c1C(=O)N1CCCCC1	15.3%
COCC(=O)NC1(c2nnnn2CCOC(=O)Nc2ccc(Cl)cc2)CCCCC1	0.725%
